Screen size: about 220,000 compounds; about 5,700 (2.6%) were called active. Inconclusive means that the source gave no clear call. Such entries were picked first, then a sample of the others. Calls follow the shape of the dose curve; as a rule, active = well fitted inhibition curve with a large enough effect; inconclusive = small, poorly fitted or top-dose-only effect; inactive = no such curve, though single readings can be large or run the other way. A potency beside an inconclusive call is a rough fit, not a confirmed value.
Target: Lysine-specific demethylase 5B (Homo sapiens) (UniProt Q9UGL1)
Chain of UniProt Q9UGL1 (Q9UGL1 whole entry, looked up): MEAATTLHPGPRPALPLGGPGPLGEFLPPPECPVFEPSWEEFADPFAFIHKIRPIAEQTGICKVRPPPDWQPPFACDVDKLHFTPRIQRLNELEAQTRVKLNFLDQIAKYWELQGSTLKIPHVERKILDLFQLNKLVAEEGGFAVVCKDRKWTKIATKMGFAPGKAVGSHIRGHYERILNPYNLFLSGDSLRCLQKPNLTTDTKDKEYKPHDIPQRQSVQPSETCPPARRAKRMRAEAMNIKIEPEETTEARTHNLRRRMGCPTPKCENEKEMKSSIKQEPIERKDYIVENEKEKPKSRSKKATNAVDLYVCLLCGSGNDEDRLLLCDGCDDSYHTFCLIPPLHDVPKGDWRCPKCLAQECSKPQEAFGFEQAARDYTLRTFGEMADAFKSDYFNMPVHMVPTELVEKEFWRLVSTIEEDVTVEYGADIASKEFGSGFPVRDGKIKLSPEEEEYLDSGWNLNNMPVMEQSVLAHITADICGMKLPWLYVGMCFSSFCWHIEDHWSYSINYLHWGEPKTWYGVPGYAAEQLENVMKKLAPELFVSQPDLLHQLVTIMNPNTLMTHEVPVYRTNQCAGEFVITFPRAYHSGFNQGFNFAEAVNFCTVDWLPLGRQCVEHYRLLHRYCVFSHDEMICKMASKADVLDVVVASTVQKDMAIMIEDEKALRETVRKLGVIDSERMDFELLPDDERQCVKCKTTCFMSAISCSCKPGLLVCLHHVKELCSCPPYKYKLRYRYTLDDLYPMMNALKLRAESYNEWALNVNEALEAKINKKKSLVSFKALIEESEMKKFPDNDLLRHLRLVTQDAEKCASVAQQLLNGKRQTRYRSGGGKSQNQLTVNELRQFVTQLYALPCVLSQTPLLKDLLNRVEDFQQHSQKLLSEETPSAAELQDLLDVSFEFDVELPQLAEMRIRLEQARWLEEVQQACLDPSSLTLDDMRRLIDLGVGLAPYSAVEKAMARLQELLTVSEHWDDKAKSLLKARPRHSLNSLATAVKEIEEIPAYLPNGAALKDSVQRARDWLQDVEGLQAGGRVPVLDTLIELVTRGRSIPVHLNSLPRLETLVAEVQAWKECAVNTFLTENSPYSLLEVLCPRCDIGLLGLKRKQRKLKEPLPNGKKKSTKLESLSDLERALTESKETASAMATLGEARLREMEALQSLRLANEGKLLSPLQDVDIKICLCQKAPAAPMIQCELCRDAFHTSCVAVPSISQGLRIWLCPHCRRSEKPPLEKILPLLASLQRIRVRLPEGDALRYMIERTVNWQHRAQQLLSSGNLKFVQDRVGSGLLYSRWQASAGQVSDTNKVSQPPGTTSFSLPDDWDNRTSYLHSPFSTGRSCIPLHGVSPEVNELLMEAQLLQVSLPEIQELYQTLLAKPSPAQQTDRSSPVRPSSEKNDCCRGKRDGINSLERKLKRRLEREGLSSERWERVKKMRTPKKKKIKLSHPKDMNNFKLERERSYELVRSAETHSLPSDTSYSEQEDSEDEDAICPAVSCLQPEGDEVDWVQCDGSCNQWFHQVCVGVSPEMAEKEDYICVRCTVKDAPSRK
Assay: Primary screen for KDM5B Histone Demethylases FDH-coupled qHTS; also: nearly all actives have a fitted effect of over 70% in size; as to activity change, negative = inhibition: 0% is about no effect
Details: FDH-coupled NADH fluorescence (FDH is formaldehyde dehydrogenase); activity change, negative = inhibition: at 57.7 µM (top of the series) unless noted
Procedure, shortened: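 Measured: NADH fluorescence change, 30 min, RT. System: KDM5BΔAP 200 nM final, H3K4me3 peptide, α-KG, Fe(II), ascorbate, NAD⁺ plus FDH, pH 7.5 HEPES. Compounds: titrated, 10 min pre-incubation with enzyme.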
Potency is read from the fitted curve at half-maximal effect; tags tell the direction and shape of the fitted curve.

Compound	Potency	activity change, negative = inhibition
O=C(O)c1ccc(-c2ccc(CNC3CCCC3)o2)cc1	inconclusive: 28.2 µM [inhibitor, partial curve, poor fit]	
CCCOc1ccc(NC(=O)C(C)Oc2ccccc2OC)c2cccnc12 (stereo not given)		inactive: 4.67%
COc1ccc(-n2nc(C(=O)Nc3ccc(C(C)=O)cc3)nc2-c2ccccc2)cc1	inconclusive: 31.6 µM [inhibitor, single point]	
COCCO[C@H]1C(=O)N(C2CCN(C(=O)C3CCOCC3)CC2)[C@H]1c1ccncc1		inactive: 31.2%
CC(C)c1ccccc1NC(=O)Cn1ccn2nc(-c3ccccc3)c(CO)c2c1=O	inconclusive: 28.2 µM [inhibitor, single point]	
O=C(c1cnn2cc(CCO)cnc12)N1CCCC(CCc2ccc(F)cc2)C1 (stereo not given)	inconclusive: 14.1 µM [inhibitor, partial curve]	
Cc1cc(C)nc(CNC2CCN(c3nc(C)nc4sccc34)CC2)n1	inconclusive: 31.6 µM [inhibitor, partial curve, poor fit]	
CC(C)N1C(=O)C2(CCCC2)C1C(=O)Nc1cccc(OC(F)(F)F)c1 (stereo not given)		inactive: -0.942%
c1coc(-c2nnc([C@H]3CCN(Cc4c[nH]c5ccccc45)C3)o2)c1	inconclusive: 35.5 µM [inhibitor, partial curve, poor fit]	
Cc1ccc(OCC(=O)Nc2c(C(=O)c3ccc(Cl)cc3)oc3ccccc23)cc1C	inconclusive: 17.8 µM [inhibitor, single point]	
CCCCNC(=O)CCc1c(C)nc2cc(-c3ccccc3)nn2c1C	inconclusive: 1.58 µM [inhibitor, full curve, poor fit]	
CN(C)c1ccc(-c2nnc([C@H]3CCN(CC4CC4)C3)o2)cc1	active: 31.6 µM	
CCC(=O)N1CCCN(Cc2ccncc2)C(c2ccccc2)CC(=O)NCC1 (stereo not given)	inconclusive: 22.4 µM [inhibitor, single point]	
CSc1ccc(-c2nc3cccc(C)n3c2Nc2ccc3c(c2)OCO3)cc1	inconclusive: 7.08 µM [inhibitor, partial curve, poor fit]	
O=C(NCCc1ccc(Cl)cc1)c1nc(-c2cc(Cl)cc(Cl)c2)c2ccccn12	inconclusive: 5.62 µM [inhibitor, partial curve, poor fit]	
Oc1ccc2ccccc2c1CN(Cc1ccccc1)Cc1ccccc1	inconclusive: 11.2 µM [inhibitor, partial curve, poor fit]	
CNCc1ccc(N2CCCC2)cc1	inconclusive: 50.1 µM [inhibitor, partial curve, poor fit]	
O=S(=O)(NCc1ccccc1Cn1cccn1)c1ccc(F)cc1F		inactive: 12.3%
CC(C)c1ccc(CNC(=O)c2ccc(N3CCCC3)c(NC(=O)NCc3ccccc3)c2)cc1	inconclusive: 14.1 µM [inhibitor, partial curve, poor fit]	
CC(C)(C)C(=O)N1CCCN(c2nc3ncccc3o2)CC1	active: 35.5 µM	
Cc1ccc(NC(=O)Cn2c(N(C)Cc3ccccc3)nc(C)cc2=O)c(C)c1	inconclusive: 31.6 µM [inhibitor, partial curve, poor fit]	
Cc1ccc(OCc2nc(C#N)c(N3CCCCCC3)o2)cc1	inconclusive: 28.2 µM [inhibitor, partial curve, poor fit]	

Compound	Potency	activity change, negative = inhibition
O=C(Cn1cc(C(F)(F)F)ccc1=O)Nc1cc(C(F)(F)F)ccc1Cl		inactive: 8.45%
Cc1ccccc1S(=O)(=O)N1CCCC(CCC(=O)NC2CC2)C1 (stereo not given)	active: 14.1 µM	
Fc1ccc(C2=CC(c3cccc(Br)c3)n3nnnc3N2)cc1 (stereo not given)		inactive: -1.94%
O=C(c1ccncc1)N1CCC(Nc2cccnc2)C1 (stereo not given)	inconclusive: 35.5 µM [inhibitor, partial curve, poor fit]	
CN(C)CCOc1ccccc1-c1ccc(C#N)cc1	active: 31.6 µM	
C/C(=N\NC(=O)c1cccs1)c1ccc2ccccc2c1	inconclusive: 39.8 µM [inhibitor, partial curve, poor fit]	
CCOc1ccc(C(=O)Oc2c(Sc3ccccc3)c(C)nn2C(C)(C)C)cc1OCC	inconclusive: 31.6 µM [inhibitor, single point]	
Cc1ccc(OCC(=O)N2CCC(Cc3nc(-c4ccccc4)no3)CC2)cc1	inconclusive: 3.55 µM [inhibitor, partial curve]	
Cc1ccccc1-n1cnc2c(sc3nc(N4CCOCC4)c4c(c32)CCCC4)c1=O	inconclusive: 35.5 µM [inhibitor, partial curve, poor fit]	
CCc1noc(-c2cn(C3CCN(C(=O)c4cccc(Br)c4)C3)nn2)n1 (stereo not given)		inactive: -14.2%
Cc1noc(-c2ccc3c(c2)OCO3)c1C(=O)NCCCCc1ccccc1	active: 28.2 µM	
O=C(O)Cn1cc(C(C(=O)O)N2CCN(Cc3ccncc3)CC2)c2cc(Br)ccc21 (stereo not given)		inactive: 1.3%
COc1cc(NC(=O)CCc2c(C)nc3c(-c4ccc(F)cc4)c(C)nn3c2C)cc(OC)c1OC	inconclusive: 0.891 µM [inhibitor, partial curve, poor fit]	
O=C(NCCN1CCOCC1)c1ccc2c(c1)n(Cc1cccc(F)c1)c(=O)c1ccnn12	inconclusive: 15.8 µM [inhibitor, partial curve, poor fit]	
Cc1cc(C)n(-c2nc(SCCN3CCOCC3)c3c4c(sc3n2)CCCC4)n1	inconclusive: 39.8 µM [inhibitor, partial curve, poor fit]	
CCCCc1cc(=O)oc2c(C)c(OCC(=O)O)ccc12	inconclusive: 14.1 µM [inhibitor, partial curve, poor fit]	
NC(=O)c1cccc(O)c1		inactive: -16.4%
CSc1cccc(NC(=O)Cn2ccn3nc(-c4ccc(F)cc4)c(CO)c3c2=O)c1		inactive: -2.8%
CN1CC(=O)N(C2CCCNCC2)Cc2c(NC3CCCCC3)ncnc21 (stereo not given)	inconclusive: 44.7 µM [inhibitor, partial curve, poor fit]	
O=C1Cc2cc(-c3csc(Nc4ccccc4)n3)ccc2N1		inactive: -14.5%
CN1CC2(CCN(C(=O)Nc3ccc4c(c3)OCCO4)CC2)CC1C(=O)N1CCOCC1 (stereo not given)	inconclusive: 22.4 µM [inhibitor, single point]	
COC(=O)c1ccc2c(=O)n(CCCCCC(=O)N3CCN(c4cc(C)ccc4C)CC3)c(=O)[nH]c2c1	inconclusive: 39.8 µM [inhibitor, single point]	

Compound	Potency	activity change, negative = inhibition
Cc1nn(-c2ccccc2)c2sc(C(=O)Nc3cccc(Cl)c3)cc12	inconclusive: 39.8 µM [inhibitor, single point]	
CNC(=O)CCCN1C(=O)CCn2nc(-c3cn(C)c4ccccc34)cc21		inconclusive: -39% [inhibitor]
COCc1cc(C)nc2sc(C(=O)Nc3ccc(C(C)=O)cc3)c(N)c12	inconclusive: 31.6 µM [inhibitor, partial curve, poor fit]	
CCN(CC)C(=O)CCc1ccc(C(C)(C)C)cc1		inactive: 16.9%
COc1ccccc1NC(=O)CSc1n[nH]c(-c2ccccn2)n1	inconclusive: 28.2 µM [inhibitor, single point]	
CC(C)CCN1CCN(C(=O)c2ccc(C#N)cc2)CC1		inactive: 12%
COc1cccc(/C=N/NC(=O)CNC(=O)c2cccnc2)c1O	inconclusive: 17.8 µM [inhibitor, partial curve, poor fit]	
Cc1ccc(NC(=O)Nc2cn(C)c(=O)c3ccccc23)c(Cl)c1	inconclusive: 3.98 µM [inhibitor, partial curve, poor fit]	
Cc1ccc(C2C=C(c3ccccc3)Nc3nc(NS(=O)(=O)c4ccc(C)cc4)nn32)cc1 (stereo not given)	inconclusive: 25.1 µM [inhibitor, partial curve, poor fit]	
COc1ccc(CC(=O)N2CCc3nc(-c4ccc(Cl)cc4)nc(-c4ccccc4)c3C2)cc1		inactive: -7.23%
CCCN1CCC(NC(=O)c2csc3c2CCCC3)CC1		inactive: 9.16%
Cc1cc(=O)n(Cc2ccccc2)c2c1c(C)nn2-c1ccccc1	inconclusive: 31.6 µM [inhibitor, single point]	
COc1ccc2c(C)c(C(=O)N3CC(Oc4c(C)cccc4C)C3)oc2c1	inconclusive: 31.6 µM [inhibitor, single point]	
Cn1nccc1C(=O)N1CCC(Oc2ccccc2-c2nc(-c3ccccc3)no2)C1 (stereo not given)	inconclusive: 22.4 µM [inhibitor, partial curve, poor fit]	
CN1CCN(C(=O)CC[C@H]2CNC(=O)[C@@H]3[C@@H](CCN3Cc3ccc(C(=O)O)cc3)N2C)CC1	inconclusive: 28.2 µM [inhibitor, partial curve, poor fit]	
COc1ccc(-n2c(SCC(=O)NCc3ccco3)nc3c([nH]c4ccccc43)c2=O)cc1	inconclusive: 31.6 µM [inhibitor, single point]	
CCCn1c2ccccc2c2cnn(CC(=O)N(CC)c3cc(C)ccc3C)c(=O)c21	inconclusive: 28.2 µM [inhibitor, partial curve, poor fit]	
CCOC(=O)c1cc2c(=O)n3ccccc3nc2n(Cc2ccco2)c1=NC(=O)c1cccc(C)c1	inconclusive: 15.8 µM [inhibitor, partial curve, poor fit]	
COc1ccc2c(C)c(CC(=O)NCc3ccc(F)cc3)c(=O)oc2c1OC		inactive: -12.9%
COCCOCC1(CNC(=O)c2cc(C)nn2C)C[C@@H](O)[C@@H](O)C1 (stereo not given in full)	inconclusive: 39.8 µM [inhibitor, partial curve, poor fit]	
Cn1c(=O)c(=O)n(C)c2cc(N3CCCCC3)c(NS(=O)(=O)c3ccc(C(C)(C)C)cc3)cc21		inactive: -19.1%

Reference: PubChem BioAssay AID1347165 (National Center for Advancing Translational Sciences (NCATS), 2019)
